Source: the supplement of paper PMC4967469
pIC50: −log10 of the molar value. Lines with a small IC50 respond at low doses; a limit (>, <) means that the fit lies beyond the doses tested. AUC, from the same fit, is the share of area under the viability curve across the 256-fold dose range; values near 1 show little effect. An inferred top dose was calculated from the reported fits. For some of these results: Where an entry number is given, a second screen of the drug exists; the two often differ.

How the values were obtained:
Assay in all cases: Viability of human cancer cell lines after 72 h of drug (GDSC screen)
SB-525334 = compound: Cc1cccc(-c2[nH]c(C(C)(C)C)nc2-c2ccc3nccnc3c2)n1 [SB-525334]; conditions: top dose 20 µM; top dose inferred
Description: (§1)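 Human cancer cell lines in 384-well plates, medium with 10% serum, drug for 72 h over a 256-fold dose range (nine 2-fold or five 4-fold steps up to the top dose). Adherent lines were fixed and stained with the nucleic acid dye Syto60, suspension lines read with resazurin; signal relative to control wells, capped at 0 and 100%. One two-parameter sigmoid per drug and line, fitted in a mixed model over all curves with the slope shared within a line.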

Shikonin = compound: CC(C)=CC[C@@H](O)C1=CC(=O)c2c(O)ccc(O)c2C1=O [Shikonin]; conditions: top dose 16 µM; top dose inferred
Description: as §1

BMS-536924 = compound: Cc1cc(N2CCOCC2)cc2[nH]c(-c3c(NC[C@@H](O)c4cccc(Cl)c4)cc[nH]c3=O)nc12 [BMS-536924]; conditions: top dose 4 µM; screen: GDSC drug entry 1091; top dose inferred
Description: as §1

Olaparib = compound: O=C(c1cc(Cc2n[nH]c(=O)c3ccccc23)ccc1F)N1CCN(C(=O)C2CC2)CC1 [Olaparib]
Description: as §1

VX-702 = compound: NC(=O)c1ccc(N(C(N)=O)c2c(F)cccc2F)nc1-c1ccc(F)cc1F [VX-702]; conditions: top dose 2 µM; top dose inferred
Description: as §1

HG-5-113-01 = compound: CNC(=O)c1ccc(Nc2cc(Nc3ccccc3S(=O)(=O)C(C)C)c3cc[nH]c3n2)nc1 [HG-5-113-01]; conditions: top dose 10 µM; top dose inferred
Description: as §1

BIRB 0796 = compound: Cc1ccc(-n2nc(C(C)(C)C)cc2NC(=O)Nc2ccc(OCCN3CCOCC3)c3ccccc23)cc1 [BIRB 0796]; conditions: top dose 10 µM; top dose inferred
Description: as §1

[1] = top dose 5 µM, screen: GDSC drug entry 1017, top dose inferred
[2] = top dose 10 µM, screen: GDSC drug entry 1495

Cell Line	AUC (SB-525334)	pIC50 (SB-525334)	AUC (Shikonin)	pIC50 (Shikonin)	AUC (BMS-536924)	pIC50 (BMS-536924)	AUC (Olaparib; [1])	pIC50 (Olaparib; [1])	AUC (Olaparib; [2])	pIC50 (Olaparib; [2])	AUC (VX-702)	pIC50 (VX-702)	AUC (HG-5-113-01)	pIC50 (HG-5-113-01)	AUC (BIRB 0796)	pIC50 (BIRB 0796)
451Lu (melanoma, adherent)	0.986	< 4.70	0.35	6.41	0.983	< 5.40	0.986	< 5.30	0.988	< 5.00	0.953	< 5.70	0.902	< 5.00	0.98	< 5.00
ASH-3 (thyroid, adherent)	0.988	< 4.70	0.478	6.06	0.949	< 5.40	0.978	< 5.30	0.963	< 5.00	0.988	< 5.70	0.779	5.39	0.973	< 5.00
CHSA0011 (chondrosarcoma, adherent)	0.963	< 4.70	0.736	5.20	0.833	< 5.40	0.98	< 5.30	0.91	< 5.00	0.973	< 5.70	0.764	5.29	0.816	5.06
COLO-783 (melanoma, adherent)	0.944	< 4.70	0.829	5.02	0.967	< 5.40	0.973	< 5.30	0.99	< 5.00	0.991	< 5.70	0.931	< 5.00	0.983	< 5.00
DOV13 (ovary, adherent)	0.973	< 4.70			0.804	5.63	0.984	< 5.30	0.947	< 5.00	0.977	< 5.70	0.588	5.95	0.95	< 5.00
EFM-192A (breast, adherent)	0.963	< 4.70	0.484	6.05	0.984	< 5.40	0.984	< 5.30	0.977	< 5.00	0.981	< 5.70	0.843	5.08	0.986	< 5.00
EMC-BAC-1 (lung adenocarcinoma, adherent)	0.909	< 4.70			0.816	5.58	0.981	< 5.30	0.962	< 5.00	0.948	< 5.70	0.671	5.70	0.947	< 5.00
EMC-BAC-2 (lung adenocarcinoma, adherent)	0.973	< 4.70			0.868	< 5.40	0.941	< 5.30	0.872	< 5.00	0.982	< 5.70	0.633	5.81	0.882	< 5.00
FLO-1 (oesophagus, adherent)	0.86	< 4.70			0.822	5.41	0.974	< 5.30	0.956	< 5.00	0.956	< 5.70	0.672	5.63	0.799	5.12
